From PubChem BioAssay AID1347165 (National Center for Advancing Translational Sciences (NCATS), 2019)
Among all 220,000 compounds or so, about 5,700 (2.6%) were called active. The shares of active, inactive and inconclusive entries below differ from those in the screen. Calls come from the whole dose curve; as a rule, active = well fitted inhibition curve with a large enough effect; inconclusive = small, poorly fitted or top-dose-only effect; inactive = no such curve, though single readings can be large or run the other way. Potencies beside an inconclusive call are fits to weak or partial responses and may not hold up.

Biological target: Lysine-specific demethylase 5B (Homo sapiens) (UniProt Q9UGL1)
UniProt Q9UGL1, sequence (Q9UGL1 whole entry, looked up): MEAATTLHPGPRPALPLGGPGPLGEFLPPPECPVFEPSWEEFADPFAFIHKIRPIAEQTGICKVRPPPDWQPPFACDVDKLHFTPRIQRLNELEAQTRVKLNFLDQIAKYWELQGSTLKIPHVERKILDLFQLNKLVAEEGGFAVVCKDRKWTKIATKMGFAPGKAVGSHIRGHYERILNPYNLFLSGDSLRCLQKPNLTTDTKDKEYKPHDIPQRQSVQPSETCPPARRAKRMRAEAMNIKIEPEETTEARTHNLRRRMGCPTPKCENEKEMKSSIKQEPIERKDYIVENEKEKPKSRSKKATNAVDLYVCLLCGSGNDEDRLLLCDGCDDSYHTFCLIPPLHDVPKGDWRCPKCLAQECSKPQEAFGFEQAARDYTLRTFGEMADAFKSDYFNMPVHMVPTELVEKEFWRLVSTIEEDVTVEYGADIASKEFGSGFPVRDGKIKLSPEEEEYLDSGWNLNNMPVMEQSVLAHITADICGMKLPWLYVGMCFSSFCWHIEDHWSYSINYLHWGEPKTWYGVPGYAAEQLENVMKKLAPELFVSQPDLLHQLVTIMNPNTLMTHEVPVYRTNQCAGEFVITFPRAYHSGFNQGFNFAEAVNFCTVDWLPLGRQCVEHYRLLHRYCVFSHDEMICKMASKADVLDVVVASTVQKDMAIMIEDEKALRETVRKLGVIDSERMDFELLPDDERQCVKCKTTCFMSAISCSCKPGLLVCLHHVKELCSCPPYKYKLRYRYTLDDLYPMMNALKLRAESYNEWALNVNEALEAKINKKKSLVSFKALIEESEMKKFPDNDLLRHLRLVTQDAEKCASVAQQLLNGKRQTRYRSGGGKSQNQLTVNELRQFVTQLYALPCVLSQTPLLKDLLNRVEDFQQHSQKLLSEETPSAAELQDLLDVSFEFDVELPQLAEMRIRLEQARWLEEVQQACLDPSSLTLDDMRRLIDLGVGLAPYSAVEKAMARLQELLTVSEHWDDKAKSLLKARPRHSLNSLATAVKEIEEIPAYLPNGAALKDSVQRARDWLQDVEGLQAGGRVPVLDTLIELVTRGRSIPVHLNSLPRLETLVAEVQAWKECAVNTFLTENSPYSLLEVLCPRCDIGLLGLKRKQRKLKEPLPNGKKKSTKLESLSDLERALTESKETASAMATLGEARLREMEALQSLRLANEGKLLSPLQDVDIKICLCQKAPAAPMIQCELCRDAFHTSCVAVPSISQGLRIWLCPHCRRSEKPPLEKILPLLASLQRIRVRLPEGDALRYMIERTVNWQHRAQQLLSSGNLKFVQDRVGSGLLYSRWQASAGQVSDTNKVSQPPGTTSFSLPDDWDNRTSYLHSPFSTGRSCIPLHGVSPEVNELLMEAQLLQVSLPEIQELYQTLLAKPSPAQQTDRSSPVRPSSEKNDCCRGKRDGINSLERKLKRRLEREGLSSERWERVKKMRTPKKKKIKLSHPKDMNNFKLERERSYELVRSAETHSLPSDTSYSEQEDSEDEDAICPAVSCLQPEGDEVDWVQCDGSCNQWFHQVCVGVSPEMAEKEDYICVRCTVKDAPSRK
Experiment: Primary screen for KDM5B Histone Demethylases FDH-coupled qHTS; note: nearly all actives have a fitted effect of over 70% in size; for activity change, negative = inhibition: 0% is about no effect
Conditions: FDH-coupled NADH fluorescence (FDH is formaldehyde dehydrogenase); activity change, negative = inhibition: at 57.7 µM (top of the series) unless noted
Procedure, shortened: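 Compound dilutions met 200 nM (final) KDM5BΔAP for 10 min at room temperature before substrate addition. The substrate mix held 12.5 µM H3K4me3 with cofactors 25 µM α-ketoglutarate and 50 µM Fe²⁺. NADH signal gain over 30 min defined activity.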
Potency is the fitted concentration of half-maximal effect; tags give direction and shape of the fitted curve.

How did the Potency turn out when `O=[S+]([O-])(c1cccnc1)c1nnn2c1nc(N1CCOCC1)c1ccccc12` was run?
The Potency was “inactive”.

How did the Potency turn out when `Cc1ccc2cc(COC(=O)c3ccco3)c(=O)[nH]c2c1` was run?
The Potency was “inactive”.

How did the Potency turn out when `COc1ccc(N2CCN(C(=O)c3cc(NC(C)=O)cc4nc(C)ccc34)CC2)cc1` was run?
Its Potency is inconclusive: 17.8 µM [inhibitor, partial curve, poor fit].

Which Potency does the source give for `O=C1Nc2ccc(-c3ccc(Cl)cc3)cc2C(=O)N2CCN(C(=O)c3cccs3)C[C@H]12` here?
Its Potency is “inactive”.

Which Potency does the source give for `Cc1cccc2c1-c1sc(C(=O)NCCCN3CCN(c4ccccc4F)CC3)cc1CO2` here?
The Potency was inconclusive: 31.6 µM [inhibitor, partial curve, poor fit].

Which Potency does the source give for `Cc1nccn1CCN(C)c1ccc(-c2nc(COc3ccccc3)no2)cn1` here?
Its Potency is active: 22.4 µM.

For `CCOc1ccc(C(=O)/C=C/c2cn(CC(O)CN3CCc4ccccc43)c3ccccc23)cc1` (configuration not stated), which Potency is on record?
Its Potency is inconclusive: 39.8 µM [inhibitor, single point].

With `Cc1cc(C)cc(N2C(=O)N(Cc3cc(=O)n4ccccc4n3)c3ccccc3S2(=O)=O)c1` as the molecule, how does the Potency read?
The Potency was inconclusive: 28.2 µM [inhibitor, partial curve, poor fit].

`O=[S+]1([O-])NCC2(CCCN(Cc3ccncc3)C2)Oc2ncccc21` (configuration not stated) was tested. Which Potency did it give?
Its Potency is “inactive”.

With `CNC(=O)N1CCC(C2CCN(C(=O)CCc3ccccc3)C2)CC1` (configuration not stated) as the molecule, how does the Potency read?
Its Potency is “inactive”.

How did the Potency turn out when `CCOc1ccc(CN2CCN(Cc3ccc4c(c3)c3ccccc3n4CC)CC2)cc1` was run?
Its Potency is inconclusive: 3.98 µM [inhibitor, full curve, poor fit].

For `CCOC(=O)CNC(=O)c1cc(-c2ccc(Cl)cc2)nc2ccccc12`, which Potency is on record?
Its Potency is inconclusive: 25.1 µM [inhibitor, partial curve, poor fit].

Which Potency does the source give for `CCN(CC)S(=O)(=O)c1ccc(N(C)C)c(NS(=O)(=O)/C=C/c2ccccc2)c1` here?
Its Potency is inconclusive: 25.1 µM [inhibitor, partial curve, poor fit].

How did the Potency turn out when `COc1ccc(C(=O)Nc2cccc(/C=C(/C#N)C(=O)NC3CC3)c2)cc1` was run?
The Potency was inconclusive: 35.5 µM [inhibitor, single point].

With `Cc1nnc(NC(=O)c2cc(-c3ccccn3)nc3ccccc23)s1` as the molecule, how does the Potency read?
The Potency was “inactive”.

With `COc1ccc(-c2cc3nc(C)c(CCC(=O)NCCc4ccc(Cl)cc4)c(C)n3n2)c(OC)c1` as the molecule, how does the Potency read?
Its Potency is inconclusive: 11.2 µM [inhibitor, partial curve, poor fit].

Which Potency does the source give for `COc1cc(/C=C/c2nc3ccccc3s2)ccc1OC(F)F` here?
Its Potency is inconclusive: 11.2 µM [inhibitor, partial curve, poor fit].

With `O=C(CN1C(=O)COc2ccc(S(=O)(=O)N3CCCCCC3)cc21)N1CCN(c2ccc(F)cc2)CC1` as the molecule, how does the activity change, negative = inhibition read?
Its activity change, negative = inhibition is inconclusive: -33.2% [inhibitor].

With `COc1ccc(/C=C/c2ccc3c(c2)C(=O)N2CC[C@H](NC(=O)COCC(=O)O)[C@H]2C(=O)N3)cc1` as the molecule, how does the Potency read?
Its Potency is active: 22.4 µM.

How did the Potency turn out when `Cn1ncc(CN2CCc3nc(-c4ccc(F)cc4F)[nH]c3C2)c1C1CC1` was run?
The Potency was active: 25.1 µM.

With `O=C(NC1CCCCC1)C1CCCN(C(=O)c2ccc3cc[nH]c3c2)C1` (configuration not stated) as the molecule, how does the Potency read?
Its Potency is inconclusive: 17.8 µM [inhibitor, partial curve, poor fit].

Which Potency does the source give for `CCOCc1ccc(CNC(=O)/C=C/c2ccco2)cc1` here?
The Potency was inconclusive: 28.2 µM [inhibitor, partial curve, poor fit].

How did the Potency turn out when `CC(NC(=O)c1cc(Cl)nc(Cl)c1)C1CC2CCC1C2` (configuration not stated) was run?
Its Potency is “inactive”.

With `Cc1ccc(CSc2ncc(Cl)c(C(=O)Oc3ccccc3F)n2)cc1` as the molecule, how does the Potency read?
Its Potency is inconclusive: 39.8 µM [inhibitor, single point].

With `Cc1ccc2c(CN(C)Cc3cccc(Cl)c3)cc(=O)oc2c1C` as the molecule, how does the Potency read?
The Potency was inconclusive: 28.2 µM [inhibitor, single point].

How did the Potency turn out when `COc1ccc2c(c1)c1c(c(=O)n(-c3ccc(OC)c(OC)c3)c(=O)n1Cc1ccc(F)cc1)n2C` was run?
The Potency was inconclusive: 1.12 µM [inhibitor, full curve, poor fit].

How did the Potency turn out when `CCOC(=O)C1CCCN(c2c(C(=O)c3ccccc3)cnc3ccc(F)cc23)C1` (configuration not stated) was run?
Its Potency is inconclusive: 1.12 µM [inhibitor, partial curve, poor fit].

With `Cc1cn2nc(C(=O)N3CCN(c4ccccc4)CC3)cc2c(N(C)Cc2ccccc2)n1` as the molecule, how does the Potency read?
The Potency was active: 25.1 µM.

`O=C(NC(c1ccccc1)c1ccccn1)c1cccc[n+]1[O-]` (configuration not stated) was tested. Which Potency did it give?
Its Potency is “inactive”.

How did the Potency turn out when `CNC(=O)CN1CCCC(N2CCN(c3ccccc3F)CC2)C1` (configuration not stated) was run?
The Potency was inconclusive: 3.16 µM [inhibitor, single point].

Which Potency does the source give for `CN1c2cc(C(=O)Nc3ccc(C(F)(F)F)cc3)ccc2C(=O)N2CCCCC21` (configuration not stated) here?
The Potency was inconclusive: 22.4 µM [inhibitor, partial curve, poor fit].

For `C=CCNC(=O)C(NC(=O)c1ccc(OC)cc1)C1CCN(C(=O)C2CC2)CC1` (configuration not stated), which Potency is on record?
The Potency was “inactive”.

`CCN(CC)c1ccc(/C=N/n2c(-c3ccccc3Br)n[nH]c2=S)cc1` was tested. Which Potency did it give?
The Potency was inconclusive: 3.55 µM [inhibitor, full curve, poor fit].

Which Potency does the source give for `CCOC(=O)C1(Cc2ccc(F)cc2F)CCCN(S(=O)(=O)c2c(C)noc2C)C1` (configuration not stated) here?
Its Potency is “inactive”.

For `Cc1c(CC(=O)NCc2ccccc2Cl)c(=O)oc2c(C)c(O)ccc12`, which Potency is on record?
The Potency was inconclusive: 1.78 µM [inhibitor, full curve, poor fit].

How did the Potency turn out when `O=C(NCc1ccco1)N1CC(c2noc(C3CCCN3CC3CC3)n2)C1` (configuration not stated) was run?
The Potency was inconclusive: 28.2 µM [inhibitor, partial curve, poor fit].

With `OC[C@H]1CN(Cc2ccc(-n3ccnc3)cc2)C[C@H]1CN1CCCCC1` as the molecule, how does the Potency read?
The Potency was “inactive”.

For `CC(CNC(=O)c1ccc(Cn2c(=O)c3cccn3c3cccnc32)cc1)c1ccccc1` (configuration not stated), which Potency is on record?
Its Potency is inconclusive: 39.8 µM [inhibitor, single point].

How did the Potency turn out when `CCCCC(CC)C(=O)NCc1cccs1` (configuration not stated) was run?
Its Potency is “inactive”.

`Cc1cc(F)ccc1-c1[nH]nc2ncc(-c3cn[nH]c3)nc12` was tested. Which Potency did it give?
Its Potency is active: 28.2 µM.

With `O=C(CCC[C@@H]1[C@H]2CCCN3CCC[C@@H](CN1C(=O)c1ccccc1)[C@@H]23)N1CCCCC1` as the molecule, how does the Potency read?
The Potency was inconclusive: 28.2 µM [inhibitor, single point].

Which Potency does the source give for `c1cc(-c2noc([C@@H]3CCCN3C3CCOCC3)n2)cc(N2CCCC2)n1` here?
The Potency was inconclusive: 25.1 µM [inhibitor, single point].
